Test results taken from PubChem BioAssay AID463173 (ICCB-Longwood Screening Facility, Harvard Medical School, 2010).
In all, about 52,000 compounds went through this assay and about 4,300 (8.3%) were called active. No stated cut-off is given here; in the data, active means survival mostly below about 52% (no sharp cut-off); inactive means mostly above about 56%. This is one part of the list.

System: DeltatarO mutant
Experiment: growth inhibition of S. aureus wild type versus tarO mutant, primary screen, teichoic acid synthesis inhibitors, RN4220, OD600 (AID 463173)
Conditions: OD600, 18 h, stronger effect = lower value, screened at 18.75 µg/mL (by protocol)

SMILES | survival
COc1ccc(CNC(=O)Cc2c(C)c3ccc(O)cc3oc2=O)cc1 | inactive: 55%
CCCC1CC(C)(/C(C)=N\NC(N)=S)OC1=O (stereo not given) | inactive: 98%
NNc1c(O)c(C(=O)O)cc2ccccc12 | inactive: 69%
CNC(=O)c1c(NC(=O)c2cc(=O)c3ccccc3o2)sc2c1CCC2 | inactive: 94%
CCCCNC(=O)CSc1c2c(nc3ccc(Cl)cc13)CCCC2 | active: 38%
COc1ccc(-c2nc3ccccc3s2)cc1NC(=O)c1ccccc1OC | inactive: 77%
O=C(CSc1nc2ccccc2n1Cc1cccc(Cl)c1)N1CCN(c2ccc(F)cc2)CC1 | inactive: 80%
c1ccc(N2CCN(c3ncnc4c3nc3n4CCCC3)CC2)cc1 | inactive: 73%
Cc1cc2oc(C(=O)Nc3cccc(-c4nc5ccccc5o4)c3)c(C)c2cc1Cl | inactive: 80%
O=C(Nc1ccc(Cl)cc1)c1ccc2c(c1)N(Cc1ccccc1)C(=O)c1ccccc1S2(=O)=O | inactive: 110%
COc1ccc(OC)c(CNC(=O)Cn2nc(C)c3c(C)n(-c4ccccc4)nc3c2=O)c1 | inactive: 92%
CCOc1ccccc1CNC(=O)CC(C)n1ccc(C)n1 (stereo not given) | inactive: 77%
CCc1nn(CC(=O)NCc2cccc(OC)c2OC)c(=O)c2cc3occc3n12 | inactive: 126%
COc1cccc2cc(C(=O)N3CCCCC3)c(=O)oc12 | inactive: 85%
COc1ccc(NC(=O)C2=C(C)Nc3nc(SC)nn3C2c2cc(OC)ccc2OC)cc1 (stereo not given) | inactive: 87%
Cc1nnc(N2CCC(C(=O)NCc3ccc(N(C)C)cc3)CC2)c2nn(-c3ccccc3)c(C)c12 | inactive: 97%
O=C(NCCCO)C(=O)Nc1c2c(nn1-c1ccc(F)cc1)CSC2 | inactive: 91%
CC(C)(C)c1cn2ccc3ccccc3c2n1 | inactive: 108%
Cc1ccc(NC(=O)c2cc(-c3ccc4c(c3)OCO4)on2)cc1 | inactive: 75%
CC1=C(C(=O)Nc2ccc(C)cc2)C(c2ccccc2Cl)n2nnnc2N1 (stereo not given) | inactive: 144%

SMILES | survival
CCOc1ccc(CNC(=O)COc2cc(=O)n(C)c3ccccc23)cc1 | inactive: 67%
COc1ccc(N(C)C(C)=O)cc1 | inactive: 91%
Fc1ccc(CNc2nc3c(-c4ccc(F)cc4)nnn3c3ccccc23)cc1 | inactive: 105%
COc1cc(C(=O)NCc2ccc3c(c2)CCN3C(=O)c2ccncc2)cc(OC)c1OC | inactive: 101%
Cc1ccc(NC(=O)NCCc2c(C)nn(C)c2C)c(Cl)c1 | inactive: 72%
CCCCSc1ncnc2c1sc1nc(N3CCOCC3)c3c(c12)CCCC3 | inactive: 77%
COc1ccc(-c2noc(CSCC(=O)Nc3ccc(C)cc3Br)n2)cc1OC | inactive: 87%
COc1cccc(/C=C/c2nc(C#N)c(N(C)Cc3ccccc3)o2)c1 | inactive: 73%
COCCCNC(=O)CN1C(=O)c2c(c3ccccc3n2C)C1c1ccc(OC)cc1 (stereo not given) | inactive: 83%
Cc1nn2c(=O)cc(COC(=O)c3ccc(C(C)(C)C)cc3)nc2s1 | inactive: 78%
CSc1cccc(NC(=O)CN(C)S(=O)(=O)c2ccc3c(c2)n(C)c(=O)c(=O)n3C)c1 | inactive: 87%
Cc1cccc(C(=O)N2CCC(C)CC2)c1 | inactive: 94%
O=C(NCCN1CCOCC1)N1CCNC1=O | inactive: 58%
O=c1ccc2cc(S(=O)(=O)N3CCCC3)ccc2[nH]1 | inactive: 101%
COc1cc(NC(=O)c2ccc(C(=O)Nc3cc(OC)c(Cl)cc3OC)cc2)c(OC)cc1Cl | inactive: 60%
CCCN1CCN(CCCNC(=O)Cn2nc(C)n3c(cc4cc(F)ccc43)c2=O)CC1 | inactive: 93%
CCC(=O)N1CCc2cc(Br)cc(S(=O)(=O)CCC(=O)NCc3ccccc3)c21 | inactive: 90%
Cc1cccc(-n2ccnc2SCC(=O)Nc2ccccc2C(F)(F)F)c1 | inactive: 69%
CCn1cc(C(=O)NCCc2ccccc2)c(=O)c2cc(S(=O)(=O)N3CCOCC3)ccc21 | inactive: 81%
COc1ccc(CNC(=O)CCc2c(C)nc3c(c2C)c(=O)n(C)c(=O)n3C)cc1 | inactive: 115%

SMILES | survival
CCc1ccc(NC(=O)CSC2=Nc3ccccc3C3=NC(CCC(=O)NCc4cccs4)C(=O)N23)cc1 (stereo not given) | inactive: 73%
O=C(/C=C\c1ccco1)Oc1cccc2cccnc12 | active: 2%
COc1ccc(NC(=O)c2c(C)oc3ccc(O)c(CN4CCN(C)CC4)c23)cc1Cl | inactive: 68%
COc1ccc(CCNC(=O)c2ccc(CS(=O)(=O)c3ccc(C)cc3)o2)cc1OC | inactive: 79%
CCOC(=O)C1CCCN(CCC(=O)Nc2ccc(OC)cc2OC)C1 (stereo not given) | inactive: 164%
COc1cccc(N2CCN(S(=O)(=O)c3ccc(-c4cnc(C5CC5)o4)cc3)CC2)c1 | inactive: 82%
CC1CCN(S(=O)(=O)c2ccc3nc(-c4cccnc4)cc(C(=O)NCCCOC(C)C)c3c2)CC1 | inactive: 70%
COc1ccc2[nH]cc(CCNC(=O)Nc3ccccc3C)c2c1 | inactive: 45%
Cc1ccc(Cl)cc1NC(=O)c1oc2ccc(S(=O)(=O)N3CCC4(CC3)OCCO4)cc2c1C | inactive: 67%
Cc1ccc2sc(N3CCN(C(=O)C4COc5ccccc5O4)CC3)nc2c1C (stereo not given) | inactive: 144%
COc1ccc(C)cc1NC(=O)CN1CCN(CC(=O)Nc2ccccc2F)CC1 | inactive: 96%
Cc1cc(C)c(NC(=O)c2sc3nc(C)cc(C)c3c2N)c(C)c1 | inactive: 52%
COc1cc(CN2CCc3nc(Nc4ccc5c(c4)OCCO5)ncc3C2)cc(OC)c1OC | inactive: 91%
CCC(=O)N1CCc2cc(S(=O)(=O)NC(C(=O)NCc3ccc(OC)cc3)C(C)C)ccc21 (stereo not given) | inactive: 92%
Cc1ccccc1-n1c(SCC(=O)N(C(C)C)C(C)C)nnc1-c1cccnc1 | inactive: 99%
O=C(NC1CCCC1)c1cc2ccccc2oc1=O | inactive: 82%
O=C(NC1CCCCCC1)C1CCCO1 (stereo not given) | inactive: 89%
Cc1ccc(Cn2c(C)c(CNC3CCCCC3)c(C(=O)O)c2C)cc1 | inactive: 90%
COc1ccc(OC)c(CCNC(=O)CCCc2nnc3n(C)c(=O)c4sccc4n23)c1 | inactive: 95%
COc1cccc(N2C(=O)CSC23C(=O)N(CC(=O)Nc2cc(C)ccc2C)c2ccccc23)c1 (stereo not given) | inactive: 94%
